From the antibiotic and cytotoxicity screens of Wong et al. (2023)
The other results are listed elsewhere or left out.

Experiments:
HSkMC = human skeletal muscle cells; test: cytotoxicity call (relative viability < 0.9); conditions: 10 µM
HepG2 = test: cytotoxicity call (relative viability < 0.9); conditions: 10 µM
S. aureus RN4220 = test: growth inhibition call (relative growth <= 0.2); conditions: 50 µM

SMILES | cytotoxicity call (HSkMC) | cytotoxicity call (HepG2) | growth inhibition call (S. aureus RN4220)
C[C@@H]1CN([C@@H](C)CO)C(=O)c2cc(NS(C)(=O)=O)ccc2O[C@@H](C)CCCCO[C@H]1CN(C)C(=O)Nc1ccc(C(F)(F)F)cc1 | inactive | inactive | inactive
C[C@@H]1CN([C@H](C)CO)C(=O)c2cc(N(C)C)ccc2O[C@@H](C)CCCCO[C@H]1CN(C)S(=O)(=O)c1cn(C)cn1 | inactive | inactive | inactive
Cn1cnc(S(=O)(=O)N2C[C@H](O)COC[C@@H]3O[C@H](CC(=O)NCc4ccc(F)cc4)CC[C@H]32)c1 | inactive | inactive | inactive
C[C@@H]1CCCCO[C@@H](CN(C)S(=O)(=O)c2ccc(F)cc2)[C@H](C)CN([C@@H](C)CO)C(=O)c2cc(NC(=O)Nc3ccc(F)cc3)ccc2O1 | inactive | inactive | inactive
C[C@H]1CN([C@@H](C)CO)S(=O)(=O)c2ccc(-c3ccncc3)cc2O[C@@H]1CN(C)C(=O)c1ccc2c(c1)OCO2 | inactive | inactive | inactive
C[C@H]1CCCCO[C@H](CN(C)C(=O)Nc2ccc(C(F)(F)F)cc2)[C@@H](C)CN([C@@H](C)CO)C(=O)c2cc(NC(=O)CCC(F)(F)F)ccc2O1 | inactive | active | inactive
CN1C(=O)N[C@@H]2c3ccccc3O[C@@]1(COC(=O)NCCCCCC(=O)NO)[C@@H]2COC(=O)c1ccccc1 | inactive | inactive | inactive
C[C@H](CO)N1C[C@H](C)[C@H](CN(C)C(=O)c2ccncc2)OCCCC[C@H](C)Oc2ccc(NS(=O)(=O)c3ccc(Cl)cc3)cc2C1=O | inactive | inactive | inactive
COc1ccc(CN(C)C[C@H]2OCCCC[C@H](C)Oc3ccc(NC(=O)Nc4ccc(OC)cc4)cc3C(=O)N([C@@H](C)CO)C[C@H]2C)cc1 | inactive | active | inactive
NC(=O)c1c(N)c(C(N)=S)n2c1CCC2 | inactive | inactive | inactive
C[C@@H]1CN([C@H](C)CO)C(=O)c2cc(NS(=O)(=O)c3cccs3)ccc2O[C@H]1CN(C)S(=O)(=O)c1ccc(F)cc1 | inactive | inactive | inactive
CC12CCC3c4ccc(O)cc4CCC3C1CCC2OC(=O)CCC1CCCC1 (stereo not given) | active | inactive | inactive
C[C@@H]1CN([C@@H](C)CO)C(=O)c2cc(NC(=O)C3CC3)ccc2O[C@H]1CN(C)S(=O)(=O)c1ccc(Cl)cc1 | inactive | inactive | inactive
C[C@H]1CN([C@@H](C)CO)C(=O)c2cccc(NC(=O)Nc3ccccc3)c2O[C@H]1CN(C)S(=O)(=O)c1cn(C)cn1 | inactive | inactive | inactive
CCS(=O)(=O)Nc1ccc2c(c1)C(=O)N(C)[C@@H]1CC[C@@H](CC(=O)NCc3ccc(OC)cc3)O[C@@H]1CO2 | inactive | inactive | inactive
Cc1noc(C)c1NC(=O)Nc1ccc2c(c1)C(=O)N([C@H](C)CO)C[C@@H](C)[C@@H](CN(C)C(=O)Nc1ccc(C(F)(F)F)cc1)OCCCC[C@@H](C)O2 | inactive | inactive | inactive
COc1ccc2c3c([nH]c2c1)[C@@H](CO)N(C[C@]13CCN(CC1)S(=O)(=O)c1cn(cn1)C)C(=O)Nc1ccc(cc1)F | inactive | inactive | inactive
Cc1ccc(-c2csc(-c3ccc(C(F)(F)F)cc3)n2)cc1 | inactive | inactive | inactive
COCCc1nc2c(c(=O)n(C)c(=O)n2C)n1C | inactive | inactive | inactive
C[C@@H]1CN([C@@H](C)CO)C(=O)c2cc(C#CC3CCCC3)cnc2O[C@@H]1CN(C)C(=O)Cc1ccccn1 | inactive | inactive | inactive
Cc1noc(C)c1S(=O)(=O)Nc1ccc2c(c1)C(=O)N([C@H](C)CO)C[C@H](C)[C@@H](CN(C)CC1CCCCC1)OCCCC[C@@H](C)O2 | inactive | inactive | inactive
Cc1noc(C)c1S(=O)(=O)Nc1ccc2c(c1)C(=O)N([C@@H](C)CO)C[C@H](C)[C@H](CN(C)CC1CCCCC1)OCCCC[C@H](C)O2 | inactive | inactive | inactive
CC(C)CC#Cc1ccc2c(c1)O[C@H](CN(C)C(=O)Cc1ccncc1)[C@H](C)CN([C@@H](C)CO)S2(=O)=O | inactive | inactive | inactive
C[C@@H]1CN([C@@H](C)CO)C(=O)c2cc(NC(=O)Nc3ccc4c(c3)OCO4)ccc2O[C@@H]1CN(C)Cc1ccc(-c2ccccc2)cc1 | inactive | active | inactive
CN1CCN([C@H](CNC(=O)C(=O)NCCN2CCOCC2)c2ccc(N(C)C)cc2)CC1 | inactive | inactive | inactive
